These are yes or no findings as the source states them, for the method shown. For some of these results: In cells and extracts the contact can be indirect. Some results given as binding are weak or reduced against the parent protein; the word gives no strength. Tags and fused reporters may be left off the sequences shown.
Legend:
[1] = biological target: T1, LAMP1–MiD49 (FLAG-tagged MiD49 fused to LAMP1) (UniProt Q96C03); assay: ectopic recruitment to lysosomes by a LAMP1 fusion (immunofluorescence); HeLa cells expressing FLAG-tagged LAMP1 fusions; endogenous Drp1 seen with a mouse anti-Drp1 antibody; colocalisation by Pearson's coefficient
T1 sequence: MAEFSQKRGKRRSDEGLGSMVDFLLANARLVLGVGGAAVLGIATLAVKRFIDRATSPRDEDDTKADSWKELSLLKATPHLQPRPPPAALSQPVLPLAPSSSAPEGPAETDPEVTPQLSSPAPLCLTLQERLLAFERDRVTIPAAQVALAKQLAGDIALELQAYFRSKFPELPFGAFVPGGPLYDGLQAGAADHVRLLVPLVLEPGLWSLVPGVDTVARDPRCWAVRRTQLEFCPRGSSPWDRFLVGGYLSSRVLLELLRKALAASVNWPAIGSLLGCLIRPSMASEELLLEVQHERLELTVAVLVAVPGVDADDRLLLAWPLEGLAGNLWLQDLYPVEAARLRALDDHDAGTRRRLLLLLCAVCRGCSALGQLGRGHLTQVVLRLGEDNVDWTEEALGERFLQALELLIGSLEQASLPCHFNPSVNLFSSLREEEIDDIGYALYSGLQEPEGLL

Chains of the proteins cited; added tags and fusions are not shown.
UniProt O00429: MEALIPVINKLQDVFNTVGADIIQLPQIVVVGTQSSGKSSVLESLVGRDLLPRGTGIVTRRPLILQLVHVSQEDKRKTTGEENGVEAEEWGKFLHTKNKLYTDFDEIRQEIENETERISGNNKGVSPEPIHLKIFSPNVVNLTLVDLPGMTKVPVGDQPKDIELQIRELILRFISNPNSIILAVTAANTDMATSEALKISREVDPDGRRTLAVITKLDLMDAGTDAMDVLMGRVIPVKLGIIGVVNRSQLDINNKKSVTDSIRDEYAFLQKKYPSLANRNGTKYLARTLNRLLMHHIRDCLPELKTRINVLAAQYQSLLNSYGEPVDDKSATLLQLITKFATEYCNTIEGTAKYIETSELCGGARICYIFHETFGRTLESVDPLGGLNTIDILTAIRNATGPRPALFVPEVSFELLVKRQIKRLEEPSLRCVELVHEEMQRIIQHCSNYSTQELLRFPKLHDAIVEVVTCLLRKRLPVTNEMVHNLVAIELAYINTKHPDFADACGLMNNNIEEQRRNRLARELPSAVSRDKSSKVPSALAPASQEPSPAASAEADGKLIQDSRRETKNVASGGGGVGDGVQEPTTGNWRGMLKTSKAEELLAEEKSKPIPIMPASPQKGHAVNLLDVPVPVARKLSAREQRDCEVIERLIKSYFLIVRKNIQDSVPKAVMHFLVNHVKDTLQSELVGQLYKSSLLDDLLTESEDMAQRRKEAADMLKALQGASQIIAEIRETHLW
UniProt Q9NQG6: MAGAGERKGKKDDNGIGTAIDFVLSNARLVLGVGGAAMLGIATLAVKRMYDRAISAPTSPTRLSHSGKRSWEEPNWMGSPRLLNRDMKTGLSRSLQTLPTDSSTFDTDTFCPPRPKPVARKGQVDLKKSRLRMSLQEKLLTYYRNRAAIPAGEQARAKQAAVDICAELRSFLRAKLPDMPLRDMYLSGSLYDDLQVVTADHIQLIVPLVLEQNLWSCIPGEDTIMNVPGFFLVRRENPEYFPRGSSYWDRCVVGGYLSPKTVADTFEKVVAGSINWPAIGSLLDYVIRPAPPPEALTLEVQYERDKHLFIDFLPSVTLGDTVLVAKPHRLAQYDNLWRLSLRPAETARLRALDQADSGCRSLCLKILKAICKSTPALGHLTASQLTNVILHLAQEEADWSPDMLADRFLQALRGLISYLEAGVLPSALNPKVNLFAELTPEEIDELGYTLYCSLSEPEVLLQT
UniProt Q9VQE0: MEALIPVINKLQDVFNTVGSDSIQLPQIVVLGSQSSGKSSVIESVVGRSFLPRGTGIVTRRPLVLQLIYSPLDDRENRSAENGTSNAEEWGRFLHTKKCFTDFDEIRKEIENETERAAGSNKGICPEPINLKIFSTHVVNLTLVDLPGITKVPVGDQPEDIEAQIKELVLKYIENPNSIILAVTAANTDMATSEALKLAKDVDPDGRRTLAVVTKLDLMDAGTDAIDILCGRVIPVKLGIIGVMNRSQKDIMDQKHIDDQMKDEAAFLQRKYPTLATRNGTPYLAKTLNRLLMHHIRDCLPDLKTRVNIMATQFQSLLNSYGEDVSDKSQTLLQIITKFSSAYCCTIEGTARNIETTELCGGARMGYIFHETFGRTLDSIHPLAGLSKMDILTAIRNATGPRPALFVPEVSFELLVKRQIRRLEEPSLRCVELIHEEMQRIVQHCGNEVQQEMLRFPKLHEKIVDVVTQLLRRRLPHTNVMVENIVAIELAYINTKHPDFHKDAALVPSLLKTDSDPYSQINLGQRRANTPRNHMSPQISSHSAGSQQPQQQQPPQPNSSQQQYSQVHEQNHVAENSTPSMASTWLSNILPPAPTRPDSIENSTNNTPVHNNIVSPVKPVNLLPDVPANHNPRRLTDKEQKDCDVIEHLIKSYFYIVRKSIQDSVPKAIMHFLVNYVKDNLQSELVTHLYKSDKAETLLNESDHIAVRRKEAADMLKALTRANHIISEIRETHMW
UniProt Q7KN62: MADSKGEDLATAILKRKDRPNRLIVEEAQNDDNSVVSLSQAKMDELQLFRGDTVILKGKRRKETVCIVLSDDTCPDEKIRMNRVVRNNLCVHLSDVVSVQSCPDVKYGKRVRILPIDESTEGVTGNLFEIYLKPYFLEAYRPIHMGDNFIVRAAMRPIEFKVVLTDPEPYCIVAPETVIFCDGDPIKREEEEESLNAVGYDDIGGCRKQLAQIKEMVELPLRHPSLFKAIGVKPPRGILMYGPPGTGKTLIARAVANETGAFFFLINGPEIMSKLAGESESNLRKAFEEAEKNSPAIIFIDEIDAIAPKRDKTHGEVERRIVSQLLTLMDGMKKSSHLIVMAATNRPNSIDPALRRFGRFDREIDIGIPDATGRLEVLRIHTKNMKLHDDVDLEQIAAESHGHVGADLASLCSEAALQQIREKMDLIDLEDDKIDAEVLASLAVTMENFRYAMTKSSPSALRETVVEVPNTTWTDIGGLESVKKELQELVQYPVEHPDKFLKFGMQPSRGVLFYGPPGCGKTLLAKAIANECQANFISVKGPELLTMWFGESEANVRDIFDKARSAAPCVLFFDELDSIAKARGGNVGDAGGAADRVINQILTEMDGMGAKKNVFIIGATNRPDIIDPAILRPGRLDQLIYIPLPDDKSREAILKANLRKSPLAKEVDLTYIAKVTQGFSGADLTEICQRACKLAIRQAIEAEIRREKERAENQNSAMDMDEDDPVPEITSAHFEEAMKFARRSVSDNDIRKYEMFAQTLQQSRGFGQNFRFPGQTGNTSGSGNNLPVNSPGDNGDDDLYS

FLAG-CLUH (human) = biological target: T2, FLAG-CLUH (human) (UniProt O75153); assay: co-IP; lysates (RIPA buffer) of HeLa cells transfected with the indicated constructs; IP with mouse anti-FLAG antibody, Dynabeads Protein G; western blot
T2 sequence: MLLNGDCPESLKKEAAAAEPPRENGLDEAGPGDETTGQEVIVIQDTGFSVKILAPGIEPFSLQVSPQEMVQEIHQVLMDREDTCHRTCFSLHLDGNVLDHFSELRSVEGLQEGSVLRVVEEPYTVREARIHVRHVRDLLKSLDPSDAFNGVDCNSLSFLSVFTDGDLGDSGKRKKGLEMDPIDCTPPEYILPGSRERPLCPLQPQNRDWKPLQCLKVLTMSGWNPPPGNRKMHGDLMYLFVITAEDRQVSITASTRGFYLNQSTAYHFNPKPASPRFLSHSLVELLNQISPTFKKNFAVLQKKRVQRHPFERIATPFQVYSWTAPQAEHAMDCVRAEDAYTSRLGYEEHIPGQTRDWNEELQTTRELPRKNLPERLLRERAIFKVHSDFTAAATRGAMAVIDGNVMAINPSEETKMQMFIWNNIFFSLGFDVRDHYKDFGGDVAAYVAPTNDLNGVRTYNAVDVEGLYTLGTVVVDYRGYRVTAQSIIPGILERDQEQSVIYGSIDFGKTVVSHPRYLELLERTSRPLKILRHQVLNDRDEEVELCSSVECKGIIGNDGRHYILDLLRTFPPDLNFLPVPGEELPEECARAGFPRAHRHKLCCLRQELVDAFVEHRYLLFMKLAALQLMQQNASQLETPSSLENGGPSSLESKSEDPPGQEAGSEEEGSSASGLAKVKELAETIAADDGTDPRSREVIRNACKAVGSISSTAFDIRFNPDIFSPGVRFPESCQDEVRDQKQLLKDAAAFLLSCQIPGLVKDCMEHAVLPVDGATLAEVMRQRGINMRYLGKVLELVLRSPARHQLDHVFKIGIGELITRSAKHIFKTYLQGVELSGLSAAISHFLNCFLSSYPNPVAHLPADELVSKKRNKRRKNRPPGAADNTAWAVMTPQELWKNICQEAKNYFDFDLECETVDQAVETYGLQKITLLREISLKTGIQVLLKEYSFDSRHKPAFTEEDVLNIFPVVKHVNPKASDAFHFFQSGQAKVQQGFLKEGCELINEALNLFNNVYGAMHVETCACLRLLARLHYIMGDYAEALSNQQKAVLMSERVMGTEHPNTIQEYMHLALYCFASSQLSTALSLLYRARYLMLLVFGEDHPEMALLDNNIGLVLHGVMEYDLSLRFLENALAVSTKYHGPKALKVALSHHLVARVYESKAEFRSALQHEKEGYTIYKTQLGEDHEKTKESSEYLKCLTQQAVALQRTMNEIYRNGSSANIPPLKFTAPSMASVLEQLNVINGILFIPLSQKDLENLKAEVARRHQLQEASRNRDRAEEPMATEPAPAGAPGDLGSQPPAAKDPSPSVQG

[2] = biological target: T3, FLAG-tagged Clu (Drosophila Clueless) (Drosophila) (UniProt A1ZAB5); assay: co-IP; lysates (RIPA buffer) of Drosophila S2 cells transfected with tagged constructs; IP with mouse anti-FLAG or mouse anti-Myc antibody, Dynabeads Protein G; western blot
T3 sequence: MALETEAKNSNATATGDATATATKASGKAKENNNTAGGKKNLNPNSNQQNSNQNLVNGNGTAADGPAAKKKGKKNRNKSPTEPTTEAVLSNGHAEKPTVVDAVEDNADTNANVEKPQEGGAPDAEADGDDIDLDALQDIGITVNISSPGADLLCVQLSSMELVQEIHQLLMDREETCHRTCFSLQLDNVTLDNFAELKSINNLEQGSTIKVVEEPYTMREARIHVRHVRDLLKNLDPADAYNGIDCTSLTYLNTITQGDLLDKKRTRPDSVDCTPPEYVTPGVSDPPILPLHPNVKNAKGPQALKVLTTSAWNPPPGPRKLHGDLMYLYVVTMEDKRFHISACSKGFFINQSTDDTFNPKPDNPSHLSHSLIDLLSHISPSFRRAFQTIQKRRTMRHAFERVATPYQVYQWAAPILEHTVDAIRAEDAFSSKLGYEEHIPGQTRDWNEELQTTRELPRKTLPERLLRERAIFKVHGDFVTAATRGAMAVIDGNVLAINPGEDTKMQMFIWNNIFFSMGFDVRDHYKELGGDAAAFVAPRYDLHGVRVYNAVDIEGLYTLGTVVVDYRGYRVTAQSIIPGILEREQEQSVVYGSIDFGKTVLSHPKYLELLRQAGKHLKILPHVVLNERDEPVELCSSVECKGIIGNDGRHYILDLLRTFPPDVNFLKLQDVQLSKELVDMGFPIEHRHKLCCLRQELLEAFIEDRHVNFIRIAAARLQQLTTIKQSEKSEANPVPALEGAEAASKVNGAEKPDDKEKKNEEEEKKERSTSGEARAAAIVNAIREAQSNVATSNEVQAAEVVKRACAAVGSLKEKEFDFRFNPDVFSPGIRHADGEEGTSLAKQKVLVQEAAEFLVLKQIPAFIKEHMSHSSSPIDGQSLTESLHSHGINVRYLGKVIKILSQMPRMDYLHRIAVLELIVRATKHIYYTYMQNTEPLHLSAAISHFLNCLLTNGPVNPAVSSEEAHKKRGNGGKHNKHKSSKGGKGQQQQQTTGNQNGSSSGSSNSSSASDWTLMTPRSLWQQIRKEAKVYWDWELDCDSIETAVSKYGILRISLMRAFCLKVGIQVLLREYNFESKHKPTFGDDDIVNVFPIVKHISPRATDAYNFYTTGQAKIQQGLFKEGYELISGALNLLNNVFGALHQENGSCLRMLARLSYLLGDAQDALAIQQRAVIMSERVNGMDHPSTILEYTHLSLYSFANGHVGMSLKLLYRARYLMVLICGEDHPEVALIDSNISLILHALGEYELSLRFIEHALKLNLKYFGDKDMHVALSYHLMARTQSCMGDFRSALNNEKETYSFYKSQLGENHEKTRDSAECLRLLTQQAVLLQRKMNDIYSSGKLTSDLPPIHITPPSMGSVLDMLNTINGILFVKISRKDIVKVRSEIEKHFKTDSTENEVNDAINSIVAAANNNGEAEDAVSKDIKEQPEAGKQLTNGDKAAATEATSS

binding [2]	Substance	further results
	Drp1, endogenous in HeLa cells (from UniProt O00429 1-736)	binding [1]: binds
	MiD51 (in pRK5-Myc) (from UniProt Q9NQG6 1-463)	binding (FLAG-CLUH (human)): no binding
binds	Myc-tagged Drp1 (Drosophila) (from UniProt Q9VQE0 1-735)	
no binding	Valosin-containing protein (VCP), overexpressed in S2 cells (from UniProt Q7KN62 1-801)	
